Article PMC4336329 (PLoS ONE, 2015)
Out of some 310,000 compounds screened, about 14,000 (4.5%) showed an effect of 50% or more. Effects have a minus sign here. The list shows a part of the results.

What follows are molecules tested against human ether-à-go-go-related gene (hERG) potassium channel (human, UniProt Q12809) (assay: primary screen, population patch clamp on CHO cells stably expressing hERG).
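Further: peak tail current of the secondary pulse compared with the same well before compound.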

Chain of human ether-à-go-go-related gene (hERG) potassium channel (Q12809 whole entry, looked up): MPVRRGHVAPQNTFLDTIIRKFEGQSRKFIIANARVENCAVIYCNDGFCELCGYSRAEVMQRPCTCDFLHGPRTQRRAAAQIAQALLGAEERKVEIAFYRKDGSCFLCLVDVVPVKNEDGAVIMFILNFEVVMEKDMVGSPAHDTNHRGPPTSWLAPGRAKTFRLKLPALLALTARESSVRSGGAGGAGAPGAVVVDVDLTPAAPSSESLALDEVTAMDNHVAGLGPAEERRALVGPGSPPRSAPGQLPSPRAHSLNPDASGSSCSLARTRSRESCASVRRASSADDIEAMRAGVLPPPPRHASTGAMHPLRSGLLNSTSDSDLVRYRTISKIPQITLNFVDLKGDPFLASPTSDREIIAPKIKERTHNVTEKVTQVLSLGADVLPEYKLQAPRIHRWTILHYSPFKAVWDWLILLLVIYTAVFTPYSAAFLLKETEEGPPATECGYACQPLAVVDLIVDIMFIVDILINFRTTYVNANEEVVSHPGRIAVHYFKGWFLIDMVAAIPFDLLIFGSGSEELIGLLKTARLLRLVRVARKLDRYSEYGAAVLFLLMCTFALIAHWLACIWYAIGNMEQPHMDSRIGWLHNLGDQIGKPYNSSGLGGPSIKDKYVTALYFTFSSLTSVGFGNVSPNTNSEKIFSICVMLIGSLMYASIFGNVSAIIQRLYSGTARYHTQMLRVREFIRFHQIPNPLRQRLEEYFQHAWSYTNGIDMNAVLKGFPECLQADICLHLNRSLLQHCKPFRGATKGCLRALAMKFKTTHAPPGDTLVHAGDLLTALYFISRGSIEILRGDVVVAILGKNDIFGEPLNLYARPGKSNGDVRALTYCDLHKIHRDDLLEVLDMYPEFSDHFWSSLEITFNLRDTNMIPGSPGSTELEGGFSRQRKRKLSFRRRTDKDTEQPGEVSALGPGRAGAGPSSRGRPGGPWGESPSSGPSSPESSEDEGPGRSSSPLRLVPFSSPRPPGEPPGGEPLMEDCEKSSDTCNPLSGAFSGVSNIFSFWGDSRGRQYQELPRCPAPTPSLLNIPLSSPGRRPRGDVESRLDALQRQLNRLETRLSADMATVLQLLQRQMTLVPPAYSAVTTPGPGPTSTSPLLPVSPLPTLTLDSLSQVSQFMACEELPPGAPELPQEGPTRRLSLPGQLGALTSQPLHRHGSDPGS

Row | SMILES | hERG current change (%, negative = inhibition) at 10uM [%]
1 | CN1/C(=C\C(=O)COc2ccc3c(c2)OCO3)C(C)(C)c2ccccc21 | -2.98
2 | Cn1cc(CN2CCc3c([nH]c4ccccc34)C2C(C)(C)C)cn1 (centres unmarked) | -19.8
3 | CN1CCN(c2nc3ccccn3c(=O)c2C=C(C#N)C#N)CC1 | 4.08
4 | Cc1ccc(S(=O)(=O)NCC2NCCc3ccccc32)cc1 (centres unmarked) | -13.6
5 | CC(C)c1nnc(NC(=O)C2c3ccccc3Oc3ccccc32)s1 | 2.2
6 | Cc1ccc(S(=O)(=O)N2CCN(C(=O)CN3C(=O)c4ccc([N+](=O)[O-])cc4C3=O)CC2)cc1C | 1.58
7 | COC(=O)C1=C(C(=O)c2ccccc2)C(c2ccc(OC)c(OC)c2)Nc2nnnn21 (centres unmarked) | 11.6
8 | Cc1csc(NC(=O)c2cc3c(s2)-c2ccccc2OC3)n1 | 3.36
9 | C/C(CC(=O)Nc1ccc(N(C)C)cc1)=N\NC(=O)c1ccncc1 | 7.2
10 | O=C(O)CCc1ccc(-c2cccs2)n1Cc1ccco1 | -12.4
11 | O=C1Nc2ccc(Br)cc2C12OCCO2 | 15.9
12 | O=C(NCc1ccco1)c1nc2c(nnn2Cc2ccccc2Cl)c(=O)[nH]1 | -0.774
13 | c1ccc(C2C3=C(CCCC3)Nc3ncnn32)cc1 (centres unmarked) | 0.709
14 | COc1ccc(Cc2nc3ccc(C(=O)N(C)C(C)c4ccon4)cc3o2)cc1 (centres unmarked) | -3.64
15 | CC(=NCc1cccnc1)c1c(O)n(-c2ccccc2)c(=O)[nH]c1=O | 21
16 | C=CCNc1nnc(SC2CC(=O)N(c3ccc(OCCC)cc3)C2=O)s1 (centres unmarked) | -3.86
17 | Cn1cc(S(=O)(=O)N2CCOCC2)cc1C(=O)Nc1cccc(Cl)c1 | -10.4
18 | Cc1ccc(-n2ncc3c(=O)n(CC(=O)N4CCN(c5ccccc5)CC4)cnc32)cc1C | -2.49
19 | COc1ccc(-c2nc(-c3ccccc3)c(-c3cc([N+](=O)[O-])ccc3C)[nH]2)cc1OC | 11.6
20 | CN(C)C(=O)N1CCC(C(=O)N2CCCC(C(=O)c3cccc4ccccc34)C2)CC1 (centres unmarked) | -33.8
21 | O=C(O)CC/C(=N\Nc1ccccc1[N+](=O)[O-])c1cccs1 | -2.88
22 | Cc1ccsc1C(=O)NNC(=O)COc1ccccc1Cl | 16.9

Row | SMILES | hERG current change (%, negative = inhibition) at 10uM [%]
23 | CC(NC(=O)NC12CC3CC(CC(C3)C1)C2)C1CCCO1 (centres unmarked) | 1.07
24 | Cc1cc2nc(-c3cc(N4CCOCC4)ccc3[N+](=O)[O-])ccn2n1 | -35.3
25 | CCOC(=O)/C(C#N)=C1/C=CNC(=O)N1 | 0.932
26 | C=C(C)C1CC=C(C)/C(=N/NC(=O)CNc2ccc(C)cc2C)C1 (centres unmarked) | 26.4
27 | C[C@@]12CCC3[C@@](CCC4[C@@]3(C)CCC[C@@]4(C)C(=O)Nc3ccc(Cl)cc3)(CC1=O)C2 (some centres unmarked) | -1.89
28 | O=C(Nc1nccs1)c1ccc(NC(=O)C2CC=CCC2C(=O)O)cc1 (centres unmarked) | 25.3
29 | Cc1ccc(N(C(=O)c2sc(C)nc2C)C(C(=O)NCc2ccco2)c2ccccc2)cc1 (centres unmarked) | -15
30 | Clc1ccc2oc(-c3ccccn3)nc2c1 | -0.352
31 | COc1ccc(NC(=O)c2cccc(N3C(=O)C4CCC(C)CC4C3=O)c2)c(OC)c1 (centres unmarked) | -3.5
32 | CCC(C)c1ccccc1N=Cc1ccc2c(c1)OCO2 (centres unmarked) | 11
33 | O=C1OC(/C(=C\Nc2ccccc2)[N+](=O)[O-])c2ccccc21 (centres unmarked) | 9.96
34 | Cl.NC1=NCc2ccccc21 | -16
35 | CCN1CCN(C(=O)c2ccc(OC3CCN(CCc4ccccc4)CC3)cc2)[C@@H](C)C1=O | -10.2
36 | CCc1sc(N2C(=O)C3C4CCC(C4=C(C)C)C3C2=O)nc1-c1ccccc1 (centres unmarked) | -0.909
37 | Cc1csc(NC(=O)CN(C)S(=O)(=O)c2cccc3cccnc23)n1 | -18.9
38 | C[C@@H]1CCC[C@@]2(O[C@H](CCO)C[C@@H](O)[C@@H]2O)O1 | 8.68
39 | Cc1csc(=Nc2ccccc2)n1CCCN1CCCC1=O | 3.99
40 | COc1ccccc1NC(=S)NC1CC2CCC1C2 (centres unmarked) | 5.49
41 | CC(=O)Oc1ccc(/C=N/NC(=O)C2CCCN2S(=O)(=O)c2ccc(Cl)cc2)cc1 (centres unmarked) | -28.1
42 | Cc1ccc(C(=O)Nc2ccc(NC(=O)c3cccs3)cc2)c(C)c1 | 25.3
43 | CCOc1ccc(N2C(=O)CSC2c2ccncc2)cc1 (centres unmarked) | 20.6
44 | CCOC(=O)N1CCN(C(=O)c2cn(C)c3ccc(S(=O)(=O)N(CC)CC)cc3c2=O)CC1 | 17.1

Row | SMILES | hERG current change (%, negative = inhibition) at 10uM [%]
45 | COc1ccc(OC)c2sc(NC(=O)c3ccc(Br)s3)nc12 | 23.1
46 | COc1cc(C)nc(OCCNC(=O)COc2ccc(Cl)cc2Cl)n1 | -20.3
47 | Cc1ccc(C)c(NC(=S)N(Cc2ccc(Cl)cc2)Cc2ccc(C(=O)O)cc2)c1 | 8.17
48 | CCOc1ccccc1-n1c(SCC(=O)N2CCOCC2)nnc1-c1ccccn1 | -6.7
49 | COc1ccc(N(CC(=O)Nc2ccc(Cc3ccncc3)cc2)S(=O)(=O)c2ccccc2)cc1 | 8.23
50 | Cc1cccc(NC(=O)Cn2nnc(-c3cccs3)n2)c1C | -1.21
51 | COC(=O)C1N[C@@H]([C@@H](NC(=O)COc2ccccc2)C(=O)NC2CC2)SC1(C)C (some centres unmarked) | 0.352
52 | O=C(CN1/C(=C(/O)c2ccccc2)C(=O)c2ccccc2S1(=O)=O)c1ccccc1 | 2.85
53 | COc1ccc(OC)c(Nc2c3ccccc3nc3ccccc23)c1 | -11
54 | O=C(O)/C=C/c1ccc(S(=O)(=O)Nc2ccc(OCc3ccccc3)cc2)cc1 | 24.1
55 | Cc1onc(-c2ccccc2)c1C(=O)N1CCN(Cc2ccc3c(c2)OCO3)CC1.Cl | 17.5
56 | COC(=O)C1=C(N)Oc2c(oc(CO)cc2=O)C1c1ccc(F)cc1 (centres unmarked) | -7.85
57 | COc1cccc2cc3c(=O)n(-c4ccccc4)nc-3oc12 | 1.89
58 | Cc1cccc(NC(=O)c2cc3ccccc3oc2=O)c1 | 13.9
59 | CCc1cc(Cn2nc(-c3ccccc3)cc2C(=O)NCc2ccc(C)cc2)on1 | -4.24
60 | COc1ccc(NC(=O)/C(C#N)=C/c2c(C)nn(-c3ccc(F)cc3)c2Cl)cc1Cl | 4.3
61 | Cc1ccccc1C1NC(=O)Cc2ccccc21 (centres unmarked) | 7.19
62 | COc1ccc(CC(=O)NNC(=O)c2ccco2)cc1OC | 16.4
63 | Cc1cc(N2CCCCCC2)nc2ccccc12.O=C(O)C(=O)O | -56.1
64 | CCc1ccc(CCC(=O)Nc2nnc(C)s2)o1 | -5.3
65 | O=C(CSCc1ccccc1F)NCc1ccc(F)cc1 | -13.5
66 | Cl.O=S(=O)(c1cccc2cnccc12)N1CCNCC1 | 16.4

Row | SMILES | hERG current change (%, negative = inhibition) at 10uM [%]
67 | N#C/C(=C\c1c(N2CCOCC2)nc2ccccn2c1=O)C(=O)NC1CCS(=O)(=O)C1 (centres unmarked) | -1.88
68 | CC1CN(c2cnn(C(C)C)c(=O)c2Cl)CC(C)O1 (centres unmarked) | 6.84
69 | COc1ccc2[nH]c(C)c(C(=O)CN3CCc4cc(OC)c(OC)cc4C3)c2c1 | -24.9
70 | O=C(NCC1CCN(Cc2ccccc2F)CC1)Nc1ccccc1F | -22.5
71 | CCOc1ccc(NC(=O)c2sc(NC(C)=O)c(C(=O)OC)c2C)cc1 | 54.6
72 | CCCn1c(=O)c(Cc2ccccc2)c(O)c2ccccc21 | 1.06
73 | COCCCNCCCOc1ccc(C)cc1Br.O=C(O)C(=O)O | -30.7
74 | Cc1cccc(NC(=O)c2c(O)c3ccccc3n(C)c2=O)c1 | 25.8
75 | Cc1ccnc(NS(=O)(=O)c2ccc(NC(=O)c3ccc(S(=O)(=O)N4CCOCC4)cc3)cc2)n1 | 3.35
76 | COc1ccc([C@H]2CC(=O)C=C(c3ccccc3-c3ccccc3)C2)cc1 | 1.83
77 | O=C(CS(=O)(=O)c1cn(Cc2ccccc2Cl)c2ccccc12)N1CCOCC1 | 2.64
78 | CCOC(=O)N1CCN(C(=O)CN(c2ccccc2OC)S(=O)(=O)c2ccc(OC)cc2)CC1 | -3.12
79 | Cc1cc(/C=C2/C(=N)N3C(=NC2=O)SN=C3S(C)(=O)=O)c(C)n1-c1ccccc1F | 45.2
80 | Cc1cc(C)c2c(n1)sc1c(N3CCN(C)CC3)ncnc12 | -1.14
81 | COc1nccnc1NS(=O)(=O)c1ccc(NC(=S)NC(=O)c2cccc(F)c2)cc1 | 5.05
82 | CCC[N+](CC#Cc1ccccc1)(CCC)CC(=O)OC | 9.58
83 | CCCC(=O)Nc1nnc(-c2ccc3c(c2)OCCO3)o1 | -1.33
84 | Cc1ccc(NC(=O)/C(=C/c2cccc([N+](=O)[O-])c2)NC(=O)C2CCCCC2)c(C)c1 | -18.7
85 | O=C(NCc1ccccc1F)c1ccc2c(c1)OCCO2 | 10.3
86 | COc1cccc(CN(C)C(=O)c2ccc(N3CCCC3)c([N+](=O)[O-])c2)c1 | -45.3
